The text below walks through data of the RNAGym collection of RNA variant scans (doi:10.7554/elife.90254).

The source gives no read counts; variants with many changes may rest on few reads.

First the molecules themselves.
B1: OR4K15 (parent)
chain: GUUAACGGUCAUAGGCCAUGGAAACUAGGAGCACCAUUUCGCUGCCAGUGAAGAAAUGAACAAAGAAAAUCUGGGCCAGGCAGGCAUCAAAAGAAAUAGUCUUGCGCUCAACCAGAAAGUCUGUAAUCAUUUUAAGGGUA

In this data set the parent is B1. Kind of data set: self-cleavage, relative activity (ratio to wild type); higher = more cleavage; in vitro, sequencing; the parent is a self-cleaving ribozyme.
For the variant A60U U97C U102A U132C, the self-cleavage was determined as 0.94. The figure for A59G A94U A118U is 0.51; for A56U A64U A69U U103C U108C it is 0.02; for A59U G84A A118G it is 1.1. Consider A59G A86G A134U, for which the self-cleavage was found to be 1.35. In the case of A60U A62G U122C, the self-cleavage was 0.49. As for A56U A96C U100C, the figure is 1.67; as for A59G A78G A116U, 0.04; as for C61U A68G U130C, 0.83.

On to A62G A68G G138A, for which the self-cleavage was 0.47.

Consider U57C U72C U102C U122A, for which the self-cleavage turned out to be 0.06.

Turning to A56G U87C A110U A114U, the self-cleavage was determined as 0.02. The figure for U57A A60G A94G U122A is 0.78. As for U57C A64G A82G, the figure is 0.26. Turning to A60G A66U A69G, the self-cleavage worked out at 0.9. As for U57G A64G A86G U87A U124A U131C U132C, the figure is 0.56; as for A59U A64G A90G A98G U124G, 0.03. As for A60G A89U U102C, the figure is 1.7; as for A60G U70C A111G A135G, 0.

Turning to A56G U57C A90G A95G, the self-cleavage was 1.52. As to A60G A67G A114U, the self-cleavage amounted to 0.06. The figure for A60G U132C U139C is 1.21; for A56G U57C A68G A89C it is 1.01. As for U57C A62U U103C U130C, the figure is 0.32; as for A59G A60G A62U A126G, 0.35; as for A59U A69G A78U A89C, 0.23. The figure for A60U A66G A98U is 1.95. For the variant A60G U70C A91G A116U, the self-cleavage was found to be 0.13. The figure for A60U A116G U122C is 0.8; for A59G A117G A126C A140G it is 1.15. Take A59U A78U A86C A126G: the self-cleavage is 0.21. As for U57C A62C A89G A117G, the figure is 0.36; as for A59G A92G U103C, 0.56. The figure for A62U A66G A95G is 1.89; for A60G A63G U102C A117G A118G it is 1.83; for U57C A98G U102C U124A A135G it is 0.75. The figure for A59G A64G A67G is 1.33; for A62G A82G A135U it is 0.31; for A60G A90G A94G U127C A140G it is 0.13.

On to A62G A63G U132A, for which the self-cleavage amounted to 1.85. The figure for A59U A63G G93A A114G U122A G137U is 0.03; for A59G A67G A86G it is 0.83; for A60G U130C A135G it is 0.76. On to A59G A60G U131C, for which the self-cleavage worked out at 1.14.

On to C61U G73U U87A, for which the self-cleavage was found to be 0.12. The figure for A62C A67G U102C A110G U139G is 0.13; for U57C C112A U132C it is 0.02; for U57C A66G U100C it is 1.53. The figure for A59G U130G U132C is 1.75; for A56G U70C U122C it is 0.23. As for A59G A90U A116G A117G, the figure is 0.11; as for A59G G74U A96G U127C, 0.06; as for A60G A78G G83A, 0.26.

Turning to A59G A64G U70C G80A, the self-cleavage came out at 0.1. The figure for G58A A116G U120C is 0.22; for A56U G84U A92G A117G it is 0.63. As for A59G U124A A135U, the figure is 0.18; as for A60U A95G U108A, 0.01. The figure for A60G A67G A89U U103C U108A U120C is 0.01; for A60G A69U A82G U87C U108C A114G it is 0.02.

A60U U72C A129U U139C: the self-cleavage is 0.1. The figure for A60U U87C A114G is 0.71; for A59G C85U U102C U103C U108C it is 0.01.

For A60G U70A U87A, the self-cleavage was determined as 0.8. For A59G A62G A129G, the self-cleavage is 1.57. Turning to C61U A116G U120C U122C, the self-cleavage was 0.27. As for A60G C105U U108C U133A, the figure is 0; as for A56G U102C A111C A140G, 0. The figure for A62G A68G A82G U108C A111G is 0.01; for U57A A67G U103C A116U U132A it is 0.1; for A59G A66U A89G U103C it is 0.07.

Take A56G U127C U130C U132C: the self-cleavage was 1.25. As for A60U C81A U133C, the figure is 0.14. For the variant A62G A82U A98G A118G U131C, the self-cleavage was 0.

Consider A59G A63U U127A U131C, for which the self-cleavage was determined as 2.95. As for U57C A111G A117G U127C, the figure is 0; as for A59G U100C U130C, 2.44.

As for U57C U87C A91G, the self-cleavage came to 0.36. As for A62G A117G U132C, the self-cleavage came out at 2.37. The figure for U57C A60G A82U U103A is 0.23; for A59G A82G A140U it is 0.62; for U57A G74U U97A it is 0.24.

For A60G A63U A111G, the self-cleavage came out at 0.05. Take A60G U100C A135G: the self-cleavage came to 2.41. The figure for A62G A67G U97C is 1.14.

For the variant A60G A66G A94G U108C U132A, the self-cleavage was determined as 0.01. As for A62G U70C A118G, the figure is 0.21; as for A60G U102C C113U, 0.18. With A59G A62G A111G, the self-cleavage came out at 0.01. As for A60G A91U U132C, the figure is 2.41; as for A60C A94G A114G U127C U131C, 0.09; as for A59G A89U A114G, 0.05. As for G58A A117G U130C A140U, the figure is 0.24; as for A60G A68G U108A, 0.02. The figure for A60G A117G U132C is 1.53; for A60U U103C U108C it is 0. On to A60U A116G U139C A140U, for which the self-cleavage was found to be 0.9.

Take U57C U72C A95G U108A U127C U139A: the self-cleavage turned out to be 0.

With A62G C76U U108C, the self-cleavage came out at 0.03.

As to A60U A96G G106U U122C, the self-cleavage was determined as 0.01. As for A60G A64G A96G A110G U132C, the figure is 0.2; as for A60G C113U A117G, 0.02; as for A59G G74A A96G, 0.17.

For the variant A60G A64G A140G, the self-cleavage worked out at 1.07. The figure for C61U A66G A90G is 1.78. As for U57A A59U U103A A116G U120C, the figure is 0.06; as for A60G A90G U108C A118U, 0.01. As for A59G U133C A134U, the figure is 1.59.

With A62G A63G A86G, the self-cleavage stood at 0.88.

On to A62G A68G U102C U122C, for which the self-cleavage is 1.51. As for A62G A66G A111G, the figure is 0.01; as for A59G U108C A140G, 0.02. The figure for A62G G79A A116G is 0.09; for A62G A118G U130C it is 0.3; for A60G A64G A118G it is 0.91.

Consider C61U A82U A92G U100C, for which the self-cleavage was found to be 0.29. Regarding A59G A68G U70C U72C U97C, the self-cleavage was 0.16.

Turning to A60G G80U A116G U127C U132C, the self-cleavage is 0.01. With A60G A63G A90G A126U, the self-cleavage was 0.54.

Take A62G A78U A89G U124C: the self-cleavage came to 0.26. The figure for U57G U122C U132C is 0.91; for A59U A96G C105A it is 0.03; for A56G U57C G73A G80A A92G it is 0.23. As for U57C A60G A82G, the figure is 0.15; as for A60G G106C A126U U127A U131C A135G, 0. In the case of A59U U72C A96C A111U, the self-cleavage was determined as 0.04. As for A60G A66G G99A, the figure is 0.54; as for A60G U103C U122C, 0.61.

For the variant U57C U87C U97C A98G, the self-cleavage came to 1.92.

With A60G A68G U100C A117G, the self-cleavage amounted to 1.92. Turning to U57C A63G A68G U70A A126G, the self-cleavage worked out at 0.13. As for U57C A59G U87C A90G U132A, the figure is 0.32. The figure for U57C G99A U100C is 0.92. As for U57C G84A A90U U97C C105U, the figure is 0.2.

Regarding A60G A64G A68U A94U C105U, the self-cleavage was 0.22. As for A60G A69G A96G U127A, the figure is 1.48; as for A62U A63G G119U, 0; as for G58U A125G U132G, 0.3.

For A56U A68U U70C A82G, the self-cleavage was determined as 0.16. On to A59G A60G U102C, for which the self-cleavage was 1.62. The figure for A62U A91G U139C is 1.37. As for U57C A82G U102C, the figure is 0.88. The figure for U57C A98U G104A is 0.09. For the variant A59G U100A U108C A126G, the self-cleavage is 0. As for A60G A69U A125U, the figure is 2.15; as for U57C A82U A111G, 0.03.

Turning to A62G A117U U122A, the self-cleavage is 1.54. The figure for U57A U108C U120C is 0; for A56G U57C A60U A67C U120C it is 0.34. The figure for A59U A60G A95G A125G is 2. As for A60C A114U A135G, the figure is 0.05.

Take A60G A63G A82U U122C: the self-cleavage stood at 0.17. The figure for A59U A64G A91G A92U U131C is 0.99. The figure for A59G A63U A66G U100C U131C A135G is 2.4; for A62G A64G A68G A86G U127C U130C G137A it is 0.49. As for U57C A96G U108C, the figure is 0.06. For the variant A62G A66G U120C, the self-cleavage was 1.56. The figure for A60G A89U U100C is 2.15.

Turning to U57G A98G A118G, the self-cleavage was determined as 0.15. The figure for A59G A62G U131C is 1.11.

On to A60G C101A A111U, for which the self-cleavage stood at 0. The figure for U57C A86G U124C A129G is 1.23; for A59G U131A U132A A135U it is 1.29. The figure for A59G A78G A140G is 0.33; for A60G A92G U139A it is 1.01; for A60G A67G U72A A78G A92G U130C it is 0.06. The figure for A62G A64G U70A is 0.59.
